# Data from paper PMC4336329 (PLoS ONE, 2015).
# The whole screen tested about 310,000 compounds, of which about 2,200 (0.71%) showed an effect of 50% or more. Effects have a minus sign here. This is one part of the list.
# Target: human ether-à-go-go-related gene (hERG) potassium channel (human, UniProt Q12809)
# Assay: primary screen, population patch clamp on CHO cells stably expressing hERG
# Sequence of human ether-à-go-go-related gene (hERG) potassium channel (Q12809 whole entry, looked up): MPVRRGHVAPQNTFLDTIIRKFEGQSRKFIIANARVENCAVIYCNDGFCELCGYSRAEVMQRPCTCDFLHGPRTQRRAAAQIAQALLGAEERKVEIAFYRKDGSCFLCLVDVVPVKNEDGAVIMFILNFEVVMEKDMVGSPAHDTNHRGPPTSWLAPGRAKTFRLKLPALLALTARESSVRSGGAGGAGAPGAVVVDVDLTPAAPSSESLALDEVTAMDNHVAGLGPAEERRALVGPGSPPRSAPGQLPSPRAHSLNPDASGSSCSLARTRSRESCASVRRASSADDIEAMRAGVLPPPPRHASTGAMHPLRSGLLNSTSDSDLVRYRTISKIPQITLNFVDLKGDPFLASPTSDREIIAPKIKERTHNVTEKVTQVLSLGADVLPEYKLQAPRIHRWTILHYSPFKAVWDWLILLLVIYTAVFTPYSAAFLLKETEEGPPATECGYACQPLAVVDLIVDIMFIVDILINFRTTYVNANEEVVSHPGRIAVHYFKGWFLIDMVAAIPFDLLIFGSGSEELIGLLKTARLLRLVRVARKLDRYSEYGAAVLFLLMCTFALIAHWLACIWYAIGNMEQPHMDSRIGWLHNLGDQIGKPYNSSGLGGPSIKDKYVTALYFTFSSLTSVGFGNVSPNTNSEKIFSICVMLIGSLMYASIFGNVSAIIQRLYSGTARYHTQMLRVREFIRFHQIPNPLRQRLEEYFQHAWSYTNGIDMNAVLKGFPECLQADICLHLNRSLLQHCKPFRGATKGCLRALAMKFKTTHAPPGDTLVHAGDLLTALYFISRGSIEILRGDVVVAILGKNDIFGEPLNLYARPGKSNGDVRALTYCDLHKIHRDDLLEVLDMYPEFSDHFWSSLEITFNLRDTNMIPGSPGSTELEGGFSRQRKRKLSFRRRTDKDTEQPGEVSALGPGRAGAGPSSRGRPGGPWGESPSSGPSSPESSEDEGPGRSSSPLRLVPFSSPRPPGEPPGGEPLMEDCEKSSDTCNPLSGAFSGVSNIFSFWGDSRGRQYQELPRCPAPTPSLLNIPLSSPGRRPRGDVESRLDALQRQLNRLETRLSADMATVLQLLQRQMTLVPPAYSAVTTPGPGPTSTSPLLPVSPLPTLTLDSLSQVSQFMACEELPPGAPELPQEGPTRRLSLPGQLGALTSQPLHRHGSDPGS
row,SMILES,"hERG current change (%, negative = inhibition) at 1uM"
1,COc1ccc(CCN(C)C(=S)Nc2ccc(SC(F)F)cc2)cc1OC,-9.97%
2,CC(=O)O[C@]1(C(C)=O)CC[C@H]2[C@@H]3C=C(C)C4=CC(=O)CC[C@]4(C)[C@H]3CC[C@@]21C,2.98%
3,COc1cc(OC)c(NS(=O)(=O)c2coc(C(N)=O)c2)cc1Cl,14.8%
4,CC(C)(C)C1CCC(C(=O)NCC(c2cccs2)N2CCOCC2)CC1 (stereo not shown),10%
5,CC(C)[C@H](NC(=O)c1ccccc1F)C(=O)Nc1ccc(F)c(F)c1,8.12%
6,CCOC(=O)c1nnn(-c2nonc2N)c1-c1ccc(OCC)cc1,1.8%
7,CN(C)c1ccc(NC(=O)/C=C/c2c(Cl)cccc2Cl)cc1,8.79%
8,Cc1ccc(S(=O)(=O)N(CC(=O)N2CCC(C)CC2)Cc2ccccc2F)cc1,-12.9%
9,CCC(C)[C@H](NC(=O)Nc1cccc(Br)c1)C(=O)OC (stereo partly shown),5.65%
10,CC(OC(=O)c1ccco1)C(=O)NC1CCCC1 (stereo not shown),5.74%
11,CC[C@H](C)[C@H](NC(N)=O)C(=O)Nc1ccc(S(=O)(=O)NC(C)C)cc1,10.6%
12,CN(CC(=O)Nc1ccc(F)cc1)C(=O)COC(=O)CCN1C(=O)C2CC=CCC2C1=O (stereo not shown),10.5%
13,COc1ccccc1C(=O)Nc1cccc(Oc2c(F)c(F)c(F)c(F)c2F)c1,15.1%
14,CCN(C(=O)COC(=O)C1CCN(S(=O)(=O)c2cccs2)CC1)c1ccccc1,13.7%
15,Nc1c(C(=O)NCCc2ccccc2)nnn1Cc1ccc(Br)cc1F,5.23%
16,CC(C)(C)c1cc(C(=O)N/N=C/c2cc3c(cc2Br)OCO3)n[nH]1,12.4%
17,c1ccc(-n2nnc(-c3cccnc3)n2)cc1,14.1%
18,CC(C)(C)c1ccc(C(=O)N/N=C/c2cccc(Cl)c2)cc1,7.62%
19,Cc1nc2cc3ccccc3cc2n1C,7.34%
20,CC(=O)N(C(C)=O)c1ncnc2c1c(-c1ccc(Cl)cc1)nn2C(C)(C)C,20.8%
21,COC(=O)c1[nH]c(=O)c2ccccc2c1OCc1ccccc1,7.9%
22,COc1ccc(OC)c(NC(=O)COc2coc(CN3CCCc4ccccc43)cc2=O)c1,7.99%

row,SMILES,"hERG current change (%, negative = inhibition) at 1uM"
1,N#CC(C#N)=Cc1c[nH]c(=O)c(C#N)c1Nc1ccccc1,14.4%
2,O=C(COC(=O)c1ccc[nH]c1=O)NCCCc1ccccc1,21.3%
3,COCc1cc(C)[nH]c(=O)c1C#N,10.7%
4,Cn1c(=O)c2c(ncn2CC(=O)Nc2ccccc2N2CCOCC2)n(C)c1=O,-0.0096%
5,N#CC1=C(SCC(=O)Nc2ccccc2)NC(=O)CC1c1ccc(O)cc1 (stereo not shown),-0.709%
6,CC(=O)c1ccc(-c2nc3ccccc3n2C)o1,4.15%
7,COc1ccc(NC(=O)CSc2nnc(COc3ccccc3)n2Cc2ccco2)cc1OC,-6.52%
8,Cc1cc(NC(=O)CCC(=O)N(CC(=O)NC2CCCC2)Cc2ccco2)no1,21%
9,CCCc1ccc(OCC(O)CN2CCN(c3ccccn3)CC2)cc1.Cl (stereo not shown),-0.969%
10,COc1ccc(C2=NNC(c3cc(Cl)cc4c3OCOC4)C2)c(O)c1 (stereo not shown),9.9%
11,CC1CCCCC1NC(=O)COC(=O)c1ccc(N(C)C)cc1 (stereo not shown),9.14%
12,Brc1ccccc1OCCCN1CCOCC1,8.45%
13,COc1cc(NC(=O)c2cc(-c3cccs3)on2)cc(OC)c1OC,-3.39%
14,COc1ccc(CCNC(=O)CSCc2ccc([N+](=O)[O-])cc2)cc1OC,-4.02%
15,O=C(COC(=O)C1COc2ccccc2O1)Nc1ccc(Cl)cc1 (stereo not shown),11.7%
16,Cc1ccc(-n2nc3c(=O)n(C(C)C(=O)NCCc4cccs4)nc(C)c3c2C)cc1 (stereo not shown),-1.96%
17,CC(=O)c1c(C)n(CCc2ccc(Cl)cc2)c2ccc(O)cc12,14.6%
18,O=[N+]([O-])c1cc(C(F)(F)F)cc([N+](=O)[O-])c1Sc1n[nH]c(C(F)(F)F)n1,11.9%
19,COc1ccc(N2CCN(C(=O)CCCNC(=O)Cn3cnc4sc(C)c(C)c4c3=O)CC2)cc1,11.4%
20,CC(=O)Nc1ccc(NS(=O)(=O)c2ccc(C)cc2)cc1[N+](=O)[O-],22.1%
21,CCCCC(=O)Nc1ccc(C(=O)NN2C(=O)c3ccccc3C2=O)cc1,5.58%
22,O=C(Nc1nccs1)c1ccc([N+](=O)[O-])cc1,4.36%

row,SMILES,"hERG current change (%, negative = inhibition) at 1uM"
1,O=S(=O)(NC1CC2CCC1C2)c1ccc(Br)s1 (stereo not shown),7.09%
2,CCCCN(C(=O)C(CCSC)N1C(=O)c2ccccc2C1=O)c1c(N)n(CCC)c(=O)[nH]c1=O (stereo not shown),7.61%
3,COc1ccc([C@@H]2[C@@H]3C(=O)N(C(C)(C)C)C(=O)[C@@H]3[C@]3(C)C(=O)N(c4cccc(Br)c4)C(=O)N23)cc1,14.9%
4,COc1ccc(NS(=O)(=O)c2cccs2)cc1S(=O)(=O)N1CCCCC1,-4.47%
5,CCN(CC)c1nc(OCCNC(=O)Nc2ccccc2)nc(N(CC)CC)n1,8.59%
6,O=C(CNS(=O)(=O)c1cccc(Br)c1)NCC1CCCCC1,10.9%
7,CCCC(=O)N1CCN(c2nnc(-c3ccc(C)cc3)c3ccccc23)CC1,-7.41%
8,CCCC(=O)Nc1cc(C)c(NC(=O)C23CC4CC(CC(C4)C2)C3)cn1,-1.21%
9,CC[C@@H](C)[C@H](NC(=O)OCc1ccccc1)c1nnc([C@@H](NC(=O)OCc2ccccc2)[C@@H](C)CC)o1,0.473%
10,CCN(CC)CCn1c2ccccc2c2nc3ccc([N+](=O)[O-])cc3cc21,11.3%
11,CC(NC(=O)C(C(=O)c1cccc([N+](=O)[O-])c1)n1cc(Cl)ccc1=O)c1ccccc1 (stereo not shown),5.65%
12,O=C(COC(=O)Cc1c(Cl)cccc1Cl)NCC1CCCO1 (stereo not shown),12%
13,CCc1nnc(SCC(=O)Nc2ccc3c(c2)OCO3)o1,16%
14,CC1CCC(CN2C(Nc3ccccc3)=NC[C@@H]2C)CC1 (stereo partly shown),4.01%
15,CCN(C(=O)c1cc(Cl)ccc1OC)c1ccccc1C,8.13%
16,O=C(O)C1=C[C@H](c2ccc3c(c2)OCO3)C[C@H](OCCCCO)O1,13.5%
17,O=C(c1cc(-c2ccc(F)cc2)on1)N1CCN(c2ccc(F)cc2)CC1,4.64%
18,C#CCOCCOCCOCCNc1nc(N2CCN(C(=O)[C@H]([C@@H](C)CC)n3cc([C@@H](N)Cc4ccc(O)cc4)nn3)CC2)nc(N2CCN(C(=O)[C@H](Cc3ccc(O)cc3)n3cc([C@@H](N)CC(C)C)nn3)CC2)n1.Cl,3.59%
19,Br.COc1cc2c(cc1OC)-c1c(OC)c(OC)cc3c1[C@H](C2)[NH+](C)CC3,2.14%
20,O=C(CCC1CCCC1)N1CCN(C(=O)c2cccnc2)CC1,-0.154%
21,CN(/N=C\c1ccc(O)c(O)c1)c1nc(-c2ccccc2)cc(-c2ccccc2)n1,7.52%
22,Cc1ccccc1C(=O)Nc1c(C(=O)N2CCN(C)CC2)cnn1-c1ccccc1,1.11%

row,SMILES,"hERG current change (%, negative = inhibition) at 1uM"
1,O=C(CCc1nc2ccccc2c(=O)[nH]1)OCc1ccccc1F,4.73%
2,Cc1c(Cl)c([N+](=O)[O-])nn1CC(=O)N1CCc2ccccc2C1,11.9%
3,COc1ccccc1C/C(N)=N/OC(=O)c1ccco1,-1.28%
4,CC(=O)Nc1nnc(SCc2ccc(C(=O)Nc3ccccc3F)cc2)s1,11.1%
5,C=CCn1c(=O)c(C(=O)Nc2ccccc2S(N)(=O)=O)c(O)c2ccccc21,9.4%
6,CN(C)S(=O)(=O)c1cccc(NC(=O)Cc2ccc(-c3ccccc3)cc2)c1,12.1%
7,O=C(Cc1ccccc1)NCCCc1ccccc1,11.1%
8,COc1ccc(S(=O)(=O)N(C)c2ccc(C(=O)N3CCC(C(N)=O)CC3)cc2)cc1,-1.86%
9,CCOC(=O)C1=C(COC(=O)/C=C/c2ccc(C)o2)NC(=O)NC1C (stereo not shown),6.48%
10,CCn1c(O)c(/C=N/NC(=O)c2ccccc2)c(=O)n(CC)c1=S,10%
11,CCC1CCCCN1C(=O)COC(=O)CN(C)S(=O)(=O)c1ccc(NC(C)=O)cc1 (stereo not shown),15.5%
12,CCCCn1c(N)c(N(CC(C)C)C(=O)c2c(-c3ccccc3)noc2C)c(=O)[nH]c1=O,-0.198%
13,Cc1cc(C)cc(NC(=O)Cc2ccc(NC3=NC4CS(=O)(=O)CC4S3)cc2)c1 (stereo not shown),8.81%
14,CCn1c(COc2ccccc2)nnc1SCC(=O)NC1CC1,7.06%
15,Cc1cccc(NC(=O)CCS(=O)(=O)c2cccc3nsnc23)c1C,14.8%
16,O=C(NCc1ccco1)c1ccc(CS(=O)(=O)c2cccc(C(F)(F)F)c2)o1,-16.2%
17,C=CCNC(=O)c1ccccc1NC(=O)Nc1ccccc1,16.7%
18,CS(=O)(=O)O.Cc1cc2c(cc1[N+](=O)[O-])NC(CNC(C)C)CC2 (stereo not shown),4.44%
19,COC(=O)[C@H](CCSC)NC(=O)Nc1ccc(OC)cc1,3.71%
